Reference: patent publication US20100305174A1, “Novel Heterocyclic Derivatives” (ORCHID RESEARCH LABORATORIES LIMITED, priority 2005, published 2010)
At least one read-out could not be matched to a standard name with certainty.

Tested on: 3T3-L1 cells
Assay: Glucose uptake assay using 3T3-L1 cells
Type: cell-based
Details: 1 μM, 72 hours, differentiated 3T3-L1 adipocytes, 14C deoxyglucose uptake; relative to BLX-1002
Experimental: 3T3-L1 cells were differentiated by the addition of differentiation cocktail (72 μg/ml insulin, 0.5 mM IBMX, 400 ng/ml Dexamethasone) for 4 days and later fed with media without differentation cocktail for 7-8 days. After differentiation the cells were incubated with the either reference compound BLX-1002 or compounds listed in the table 1 at 1 μM concentrations for 72 hours and carried out the glucose uptake assay for 10 min by the addition of KRP buffer supplemented with 2.5 μCi/ml ^14C deoxy glucose. Stimulation Index is defined as the amount of ^14C Deoxyglucose uptake induced by 1 μM of BLX-1002 incubated for 72 hrs in an assay condition as per protocol described above with differentiated 3T3-L1 adipocytes. Values of compounds mentioned in table-1 are with reference to stimulation index of reference compound BLX-1002.

Structure (SMILES): CN1C(=O)OCC1Cc1ccc(Oc2ccc(CC3SC(=O)NC3=O)cc2Cl)cc1 (stereo not shown) [Example 72]
- Stimulation Index: 1.02

Structure (SMILES): CCN1C(=O)OCC1Cc1ccc(Oc2ccc(/C=C3/SC(=O)NC3=O)cc2C(F)(F)F)cc1 (stereo not shown) [Example 24, 5-(3-triflouromethyl-4-{4-[(3-ethyl-2-oxo-1,3-oxazolidin-4-yl)methyl]phenoxy}benzylidene)-1,3-thiazolidine-2,4-dione]
- Stimulation Index: 0.77

Structure (SMILES): CCN1C(=O)OCC1Cc1ccc(Oc2ccc(/C=C3/SC(=S)N(CC(=O)O)C3=O)cc2)cc1 (stereo not shown) [Example 37]
- Stimulation Index: 0.95

Structure (SMILES): CCN1C(=O)OCC1Cc1ccc(Oc2ccc(/C=C3\C(=O)Nc4ccccc43)cc2)cc1 (stereo not shown) [Example 5]
- Stimulation Index: 0.87

Structure (SMILES): CCN1C(=O)OCC1Cc1ccc(Oc2ccc(CC3SC(=S)NC3=O)cc2C(F)(F)F)cc1 (stereo not shown) [Example 85, 4-{4-[4-[(4-oxo-2-thioxo-1,3-thiazolidin-5-yl)methyl]-2-(trifluoromethyl)phenoxy]benzyl}-N-ethyl-1,3-oxazolidin-2-one]
- Stimulation Index: 1.15

Structure (SMILES): CN1C(=O)OCC1Cc1ccc(Oc2ccc(CC3C(=O)Nc4ccccc43)cc2)cc1 (stereo not shown) [Example 64]
- Stimulation Index: 1.09

Structure (SMILES): CCN1C(=O)OCC1Cc1ccc(Oc2ccc(/C=C3/SC(=O)NC3=O)cc2Cl)cc1 (stereo not shown) [Example 21, 5-(3-chloro-4-{4-[(3-ethyl-2-oxo-1,3-oxazolidin-4-yl)methyl]phenoxy}benzylidene)-1,3-thiazolidine-2,4-dione]
- Stimulation Index: 0.82

Structure (SMILES): CCN1C(=O)OCC1Cc1ccc(Oc2ccc(/C=C3/SC(=O)NC3=O)cc2OC)cc1 (stereo not shown) [Example 23, 5-(3-methoxy-4-{4-[(3-ethyl-2-oxo-1,3-oxazolidin-4-yl)methyl]phenoxy}benzylidene)-1,3-thiazolidine-2,4-dione]
- Stimulation Index: 0.94

Structure (SMILES): CN1C(=O)OCC1Cc1ccc(Oc2ccc(/C=C3/SC(=O)NC3=O)cc2F)cc1 (stereo not shown) [Example 6, 5-(3-fluoro-4-{4-[(3-methyl-2-oxo-1,3-oxazolidin-4-yl)methyl]phenoxy}benzylidene)-1,3-thiazolidine-2,4-dione]
- Stimulation Index: 0.84

Structure (SMILES): CN1C(=O)OCC1Cc1ccc(Oc2ccc(/C=C3/SC(=S)N(CC(=O)O)C3=O)c(F)c2)cc1 (stereo not shown) [Example 57]
- Stimulation Index: 0.94

Structure (SMILES): O=C1NC(Cc2ccc(Oc3ccc(/C=C4/SC(=O)NC4=O)cc3)cc2)CO1 (stereo not shown) [Example 2, 5-(4-{4-[(2-oxo-1,3-oxazolidin-4-yl)methyl]phenoxy}benzylidene)-1,3-thiazolidine-2,4-dione]
- Stimulation Index: 0.75

Structure (SMILES): CCN1C(=O)OCC1Cc1ccc(Oc2ccc(/C=C3/SC(=S)NC3=O)c(F)c2)cc1 (stereo not shown) [Example 46, 3-ethyl-4-(4-(3-fluoro-4-[(4-oxo-2-thioxo-1,3-thiazolidin-5-ylidene)methyl]phenoxy}benzyl)-1,3-oxazolidin-2-one]
- Stimulation Index: 0.90

Structure (SMILES): CCN1C(=O)OCC1Cc1ccc(Oc2ccc(CC3SC(=S)N(CC(=O)O)C3=O)cc2)cc1 (stereo not shown) [Example 79]
- Stimulation Index: 0.85

Structure (SMILES): CN1C(=O)OCC1Cc1ccc(Oc2ccc(CC3SC(=S)N(CC(=O)O)C3=O)cc2Cl)cc1 (stereo not shown) [Example 90]
- Stimulation Index: 0.97

Structure (SMILES): CN1C(=O)OCC1Cc1ccc(Oc2ccc(/C=C3/SC(=O)NC3=O)cc2)cc1 (stereo not shown) [Example 1, (5E)-5-(4-{4-[(3-methyl-2-oxo-1,3-oxazolidin-5-l)methyl]phenoxy}benzylidene)-1,3-thiazolidine-2,4-dione]
- Stimulation Index: 0.96

Structure (SMILES): CN1C(=O)OCC1Cc1ccc(Oc2ccc(CC3SC(=S)NC3=O)c(Cl)c2)cc1 (stereo not shown) [Example 92, 4-(4-{3-chloro-4-[(4-oxo-2-thioxo-1,3-thiazolidin-5-yl)methyl]phenoxy}benzyl)-3-methyl-1,3-oxazolidin-2-one]
- Stimulation Index: 0.94

Structure (SMILES): CN1C(=O)OCC1Cc1ccc(Oc2ccc(/C=C3/SC(=S)N(CC(=O)O)C3=O)cc2Cl)cc1 (stereo not shown) [Example 41, [4-oxo-5-(3-chloro-4-{4-[(3-methyl-2-oxo-1,3-oxazolidin-4-yl)methyl]phenoxy}benzylidene)-2-thioxo-1,3-thiazolidin-3-yl]acetic acid]
- Stimulation Index: 1.12

Structure (SMILES): CCN1C(=O)OCC1Cc1ccc(Oc2ccc(/C=C3/SC(=S)N(CC(=O)O)C3=O)c(F)c2)cc1 (stereo not shown) [Example 54]
- Stimulation Index: 0.92

Structure (SMILES): CCN1C(=O)OCC1Cc1ccc(Oc2ccc(CC3C(=O)Nc4ccccc43)cc2C(F)(F)F)cc1 (stereo not shown) [Example 65]
- Stimulation Index: 0.85

Structure (SMILES): CN1C(=O)OCC1Cc1ccc(Oc2ccc(/C=C3/SC(=S)N(CC(=O)O)C3=O)c(Cl)c2)cc1 (stereo not shown) [Example 48, 4-(4-{3-chloro-4-[(3-aceticacid-4-oxo-2-thioxo-1,3-thiazolidin-5-yl)ethyl]phenoxy}-benzyl)-3-methyl-1,3-oxazolidin-2-one]
- Stimulation Index: 0.85

Structure (SMILES): CN1C(=O)OCC1Cc1ccc(Oc2ccc(/C=C3/SC(=S)NC3=O)cc2F)cc1 (stereo not shown) [Example 38, 4-(4-{2-fluoro-4-[(4-oxo-2-thioxo-1,3-thiazolidin-5-ylidene)methyl]phenoxy}benzyl)-3-methyl-1,3-oxazolidin-2-one]
- Stimulation Index: 0.62

Structure (SMILES): CCN1C(=O)OCC1Cc1ccc(Oc2ccc(/C=C3/SC(=O)NC3=O)c(Cl)c2)cc1 (stereo not shown) [Example 25, 5-(2-chloro-4-{4-[(3-ethyl-2-oxo-1,3-oxazolidin-4-yl)methyl]phenoxy}benzylidene)-1,3-thiazolidine-2,4-dione]
- Stimulation Index: 1.15

Structure (SMILES): CN1C(=O)OCC1Cc1ccc(Oc2ccc(CC3SC(=O)NC3=O)c(Cl)c2)cc1 (stereo not shown) [Example 70, 5-(2-chloro-4-{4-[(3-methyl-2-oxo-1,3-oxazolidin-4-yl)methyl]phenoxy}benzyl)-1,3-thiazolidine-2,4-dione]
- Stimulation Index: 1.00

Structure (SMILES): CCN1C(=O)OCC1Cc1ccc(Oc2ccc(/C=C3/SC(=S)N(CC(=O)O)C3=O)cc2Cl)cc1 (stereo not shown) [Example 49, 4-(4-{2-chloro-4-[(3-aceticacid-4-oxo-2-thioxo-1,3-thiazolidin-5-yl)ethyl]phenoxy}-benzyl)-3-ethyl-1,3-oxazolidin-2-one]
- Stimulation Index: 0.88

Structure (SMILES): COc1cc(CC2C(=O)Nc3ccccc32)ccc1Oc1ccc(CC2COC(=O)N2C)cc1 (stereo not shown) [Example 67]
- Stimulation Index: 1.01

Structure (SMILES): O=C1NC(Cc2ccc(Oc3ccc(/C=C4/SC(=S)NC4=O)cc3)cc2)CO1 (stereo not shown) [Example 33, 4-(4-{4-[(4-oxo-2-thioxo-1,3-thiazolidin-5-ylidene)methyl]phenoxy}benzyl)-1,3-oxazolidin-2-one]
- Stimulation Index: 0.84

Structure (SMILES): CCN1C(=O)OCC1Cc1ccc(Oc2ccc(/C=C3/SC(=S)N(CC(=O)O)C3=O)cc2F)cc1 (stereo not shown) [Example 52]
- Stimulation Index: 0.86

Structure (SMILES): CN1C(=O)OCC1Cc1ccc(Oc2ccc(/C=C3/SC(=S)NC3=O)c(Cl)c2)cc1 (stereo not shown) [Example 58, 4-(4-{3-chloro-4-[(4-oxo-2-thioxo-1,3-thiazolidin-5-ylidene)methyl]phenoxy}benzyl)-3-methyl-1,3-oxazolidin-2-one]
- Stimulation Index: 0.86

Structure (SMILES): CN1C(=O)OCC1Cc1ccc(Oc2ccc(/C=C3\C(=O)Nc4ccccc43)cc2)cc1 (stereo not shown) [Example 4]
- Stimulation Index: 0.90

Structure (SMILES): CN1C(=O)OCC1Cc1ccc(Oc2ccc(CC3SC(=S)N(CC(=O)O)C3=O)cc2F)cc1 (stereo not shown) [Example 81]
- Stimulation Index: 0.96

Structure (SMILES): CN1C(=O)OCC1Cc1ccc(Oc2ccc(CC3SC(=S)NC3=O)cc2Cl)cc1 (stereo not shown) [Example 82, 4-(4-{2-chloro-4-[(4-oxo-2-thioxo-1,3-thiazolidin-5-yl)methyl]phenoxy}benzyl)-3-methyl-1,3-oxazolidin-2-one]
- Stimulation Index: 1.06

Structure (SMILES): CCN1C(=O)OCC1Cc1ccc(Oc2ccc(/C=C3/SC(=S)N(CC(=O)O)C3=O)cc2C(F)(F)F)cc1 (stereo not shown) [Example 51]
- Stimulation Index: 0.97

Structure (SMILES): CCN1C(=O)OCC1Cc1ccc(Oc2ccc(CC3SC(=S)N(CC(=O)O)C3=O)c(Cl)c2)cc1 (stereo not shown) [Example 88]
- Stimulation Index: 0.94

Structure (SMILES): O=C1NC(Cc2ccc(Oc3ccc(/C=C4/SC(=O)NC4=O)cc3F)cc2)CO1 (stereo not shown) [Example 31, 5-(3-fluoro-4-{4-[(2-oxo-1,3-oxazolidin-4-yl)methyl]phenoxy}benzylidene)-1,3-thiazolidine-2,4-dione]
- Stimulation Index: 0.99

Structure (SMILES): CN1C(=O)OCC1Cc1ccc(Oc2ccc(/C=C3/SC(=S)N(CC(=O)O)C3=O)cc2C(F)(F)F)cc1 (stereo not shown) [Example 56, [4-oxo-5-(3-trifluoromethyl-4-{4-[(3-methyl-2-oxo-1,3-oxazolidin-4-yl)methyl]phenoxy}benzylidene)-2-thioxo-1,3-thiazolidin-3-yl]acetic acid]
- Stimulation Index: 0.64

Structure (SMILES): CCN1C(=O)OCC1Cc1ccc(Oc2ccc(CC3SC(=S)NC3=O)cc2)cc1 (stereo not shown) [Example 78, 3-ethyl-4-(4-{4-[(4-oxo-2-thioxo-1,3-thiazolidin-5-yl)methyl]phenoxy}benzyl)-1,3-oxazolidin-2-one]
- Stimulation Index: 1.06

Structure (SMILES): CN1C(=O)OCC1Cc1ccc(Oc2ccc(CC3SC(=S)NC3=O)cc2F)cc1 (stereo not shown) [Example 80, 4-(4-{2-fluoro-4-[(4-oxo-2-thioxo-1,3-thiazolidin-5-yl)methyl]phenoxy}benzyl)-3-methyl-1,3-oxazolidin-2-one]
- Stimulation Index: 0.95

Structure (SMILES): CCN1C(=O)OCC1Cc1ccc(Oc2ccc(/C=C3/SC(=S)N(CC(=O)O)C3=O)c(Cl)c2)cc1 (stereo not shown) [Example 53, [4-oxo-5-(2-chloro-4-{4-[(3-ethyl-2-oxo-1,3-oxazolidin-4-yl)methyl]phenoxy}benzylidene)-2-thioxo-1,3-thiazolidin-3-yl]acetic acid]
- Stimulation Index: 0.92

Structure (SMILES): CN1C(=O)OCC1Cc1ccc(Oc2ccc(/C=C3/SC(=O)NC3=O)cc2Cl)cc1 (stereo not shown) [Example 8, 5-(3-chloro-4-{4-[(3-methyl-2-oxo-1,3-oxazolidin-4-yl)methyl]phenoxy}benzylidene)-1,3-thiazolidine-2,4-dione]
- Stimulation Index: 1.01

Structure (SMILES): CN1C(=O)OCC1Cc1ccc(Oc2ccc(CC3SC(=O)NC3=O)cc2F)cc1 (stereo not shown) [Example 63, 5-(3-fluoro-4-{4-[(3-methyl-2-oxo-1,3-oxazolidin-4-yl)methyl]phenoxy}benzyl)-1,3-thiazolidine-2,4-dione]
- Stimulation Index: 0.75
